According to the RNAGym collection of RNA variant scans (doi:10.7554/elife.90254):
Read counts are not given, so values of variants with three or more changes are uncertain.

B1: LINE1-full (parent)
chain: UACGUAGGUGGUUUUCCCCUGAUAGUGCUAAGGGGGCCUGGAAGUUUGGACUGGGCAGAGCUCAACACAGCGUGGCAAAGUGGCUGUGGCUAGACUGCCUCUCUGGAUUCCUCGUCACUCAGCAGGGCAUCUCUGAGAGAAAUGCC

Variants of: B1
Test: self-cleavage, relative activity (ratio to wild type); higher = more cleavage; in vitro, sequencing; the parent is a self-cleaving ribozyme
Variant A31U U109A U119C has a self-cleavage of 1.5.
Work on U9C U52C U112C G137U A141G yielded a self-cleavage of 1.23.
In the case of C3U A78G G82A U100C, the self-cleavage is reported as 1.01.
In the case of U15A G35A A140C, the self-cleavage is reported as 0.65.
Work on U26C A94G A129G yielded a self-cleavage of 1.53.
In the case of U5C G41U C66A U104G, the self-cleavage is reported as 0.07.
For U9C U12C U100A, the self-cleavage was 0.4.
In the case of A50G U91A A140G, the self-cleavage is reported as 0.52.
In the case of U62C A79G U85C, the self-cleavage is reported as 0.
Work on U46C A78U C110U yielded a self-cleavage of 2.33.
For U52A C113A U115C, the self-cleavage was 1.09.
For A2G U5A U73A U81A, the self-cleavage was 0.83.
Work on U26C U29C A57C A64U C95U U134A yielded a self-cleavage of 0.1.
U39A U102C C118U U143C gave a self-cleavage of 1.53.
Work on U47A G72C A117U yielded a self-cleavage of 0.98.
With U52C U96C U143A the self-cleavage was 0.2.
For G36A U45G U96A C123U, the self-cleavage was 0.04.
Variant U9C A42G G97A has a self-cleavage of 0.19.
With U29A U47C A92U U102C the self-cleavage was 0.66.
With U87A U104C U132C the self-cleavage was 0.
For U12G G21A A43G U46A A57U U132G, the self-cleavage was 0.25.
For U62A C71A U87C U96C, the self-cleavage was 0.04.
With G8A A59G A129G the self-cleavage was 0.54.
Work on U12C U108C U112A U115C A142G yielded a self-cleavage of 0.
For U9C U13C A67G, the self-cleavage was 0.42.
A79G U91A A92U A94G showed a self-cleavage of 0.
Work on A22U U52G C128G A129G C131G yielded a self-cleavage of 1.79.
Work on C63U A65G A78G U87A yielded a self-cleavage of 0.03.
With G7U U13C U46C A69U U91C the self-cleavage was 0.
With A65G U85C U109C the self-cleavage was 1.53.
Variant A57G U109A A121U has a self-cleavage of 0.61.
Variant A57U A92C A94U A107G has a self-cleavage of 0.
Work on A6G A94G U108A C146U yielded a self-cleavage of 0.77.
A22G U45A A50G showed a self-cleavage of 0.74.
With A31G U91A A107G the self-cleavage was 0.34.
U81G A94G U108A gave a self-cleavage of 0.41.
For U15C A42G G114A, the self-cleavage was 1.59.
For A22G G44A U62C, the self-cleavage was 0.41.
With C18A U20C U134A the self-cleavage was 0.82.
Work on U5G U14C G55A U100C A117G A124U yielded a self-cleavage of 0.
U13G A42G U45C A94G showed a self-cleavage of 0.
For U20C U73A U100A U134C, the self-cleavage was 1.33.
For C18U U39C U62A, the self-cleavage was 0.22.
In the case of A30G A67C A129U A140G, the self-cleavage is reported as 0.
Variant U12C G54A A59G A138G has a self-cleavage of 0.
For A65G C68U U132C, the self-cleavage was 0.08.
With U13A U14C A57G A129C the self-cleavage was 0.21.
Variant G32A A65G G86A G93A has a self-cleavage of 0.02.
In the case of U9C U85C A140G, the self-cleavage is reported as 1.02.
U26C U39C U47C A69U gave a self-cleavage of 0.
In the case of A22U U91A A129U, the self-cleavage is reported as 0.76.
For U15C A30G U112A A140U, the self-cleavage was 0.92.
Variant U12C U13C A43U A77U U108C U112C U130A has a self-cleavage of 2.76.
A43G U46A A69G U96C showed a self-cleavage of 1.31.
With A64G G88A U104C the self-cleavage was 0.12.
With U5C G41U U115C the self-cleavage was 1.48.
For A6U U47A G53A A57G C98U A107G U130C, the self-cleavage was 0.05.
Variant C3U U96A U108A has a self-cleavage of 0.
For U15C G72A U115C, the self-cleavage was 1.96.
A24U A59G A136U gave a self-cleavage of 0.11.
U47C A65G U109C A140G showed a self-cleavage of 0.
A42U U109A A117U showed a self-cleavage of 1.74.
Work on U13A U39C G55U U102C yielded a self-cleavage of 0.1.
In the case of G58A U73A G83A, the self-cleavage is reported as 0.02.
For U100A A107G A124U, the self-cleavage was 1.53.
U9C G10U A69U gave a self-cleavage of 0.23.
Variant A79G G93A A94G U119C has a self-cleavage of 0.
U52C A65G A121U A124G showed a self-cleavage of 0.
Variant A22G U85A A94G A142G has a self-cleavage of 0.31.
In the case of A78U U87C A92G, the self-cleavage is reported as 0.16.
Work on U23C A42G G74A U100A A142G yielded a self-cleavage of 1.39.
With U12C A30U U100C the self-cleavage was 1.31.
Work on U20G A59G U108C U132C yielded a self-cleavage of 0.38.
U15A G33A U39G gave a self-cleavage of 0.48.
A59G G72A U108C gave a self-cleavage of 0.06.
Work on U87C U108C U132C A138G A141G yielded a self-cleavage of 0.
With A50U A107G A136U C146A the self-cleavage was 0.79.
With U12C G36U U47C U73A G82A the self-cleavage was 2.07.
Variant U5A U26A G125A A142G has a self-cleavage of 0.71.
With U13C U73A U119C the self-cleavage was 1.87.
A42G U47C U100C gave a self-cleavage of 1.78.
In the case of G21A A77U U115A A136G, the self-cleavage is reported as 1.27.
Variant U1A A65G U108C has a self-cleavage of 0.
In the case of A2G G106U U115C, the self-cleavage is reported as 0.95.
A69U U81C U91C U112C A136G showed a self-cleavage of 0.
For A69U U73C A142G, the self-cleavage was 0.06.
A57G A117U A142G gave a self-cleavage of 1.04.
With U26A G105A U115C A138G the self-cleavage was 1.34.
With U45C G93A U132C the self-cleavage was 0.07.
U23C C99U U115C A138U gave a self-cleavage of 1.39.
In the case of G32A C63U A94G U100C, the self-cleavage is reported as 0.01.
Work on A6U G125U A129G yielded a self-cleavage of 0.86.
In the case of A43G A64U A94G, the self-cleavage is reported as 0.13.
Work on U13A U39C C71U yielded a self-cleavage of 0.29.
Variant U52C A59G A136G has a self-cleavage of 0.05.
For U9A G36A G54A C68U U85A, the self-cleavage was 0.04.
For A24U A107G C128U, the self-cleavage was 1.56.
U87A A124U U143C showed a self-cleavage of 0.12.
With U13C U115A A117G the self-cleavage was 1.7.
Work on U20C U52C G53A G55A yielded a self-cleavage of 0.07.
G74A A78G A141G U143C showed a self-cleavage of 1.21.
Work on G7A U12G A50G A121C C128U yielded a self-cleavage of 1.07.
Variant U12C U23C G35U has a self-cleavage of 0.92.
In the case of A42G A57G A65G, the self-cleavage is reported as 0.
Variant U15C A30G A64U has a self-cleavage of 0.72.
Variant U14C A22G U46C G74A has a self-cleavage of 0.88.
Work on U5C U87C U91G A129G yielded a self-cleavage of 0.
U15C U23C A140G gave a self-cleavage of 1.33.
U20C U85A U134A showed a self-cleavage of 0.09.
For C19U A22G A31C, the self-cleavage was 0.39.
Variant C19U U20C G89A has a self-cleavage of 0.06.
U20C A43G A65G C118U U132C showed a self-cleavage of 0.15.
U1C U12G A129U gave a self-cleavage of 0.99.
For U15A G75A A136G, the self-cleavage was 0.85.
Work on U14A U26C A59U A117G A129G A138G yielded a self-cleavage of 0.92.
Work on U39A U45C U100A A124G yielded a self-cleavage of 1.01.
For U12A A64U U115C U130C, the self-cleavage was 0.71.
In the case of U26A U45C C71U A121G, the self-cleavage is reported as 0.58.
Variant U13C G48U A57G A121G has a self-cleavage of 1.05.
A50G A77U U115A showed a self-cleavage of 0.95.
Variant A24G A67U U100A U109C A117G has a self-cleavage of 0.
U1A C17U A140G showed a self-cleavage of 0.41.
Work on U13C A22U C95U A129G yielded a self-cleavage of 0.25.
Variant A57G U134G A141G has a self-cleavage of 1.84.
U112C U119A U134C gave a self-cleavage of 2.1.
With A42G A124U U130C U143C the self-cleavage was 2.43.
For U20C A121U A142G, the self-cleavage was 1.61.
A69U U81G U102C showed a self-cleavage of 0.06.
Variant A57U A69G U81C U96A C118A A138U has a self-cleavage of 0.22.
A50U A64G U73A U102C U134G gave a self-cleavage of 0.11.
Variant U73C C101U A121U has a self-cleavage of 2.3.
Work on U23G U26A U62C U73A C103A yielded a self-cleavage of 0.03.
With G8A U20A U52A G74U U134A the self-cleavage was 1.15.
In the case of U9C A43G U96G, the self-cleavage is reported as 0.31.
In the case of A22G U85C C99G, the self-cleavage is reported as 0.13.
U9A A42G U46C A59U A65G showed a self-cleavage of 0.
Variant A30G A42G C76U has a self-cleavage of 0.71.
Variant C17A A67G A77G has a self-cleavage of 0.5.
U62C U119C A121G U134C gave a self-cleavage of 0.6.
A24G U39C U62C A138G showed a self-cleavage of 0.43.
A43G G54A U96C showed a self-cleavage of 0.06.
G54A C118U G125U gave a self-cleavage of 0.67.
Work on U15A A31G A67G G80A U81C G97C yielded a self-cleavage of 0.25.
For U9C U104A U112A, the self-cleavage was 1.53.
With U23A U109C A124G U134C the self-cleavage was 0.
G8A A77G A121G gave a self-cleavage of 3.
Work on G80A A94G A129G yielded a self-cleavage of 0.08.
U20A A78G A121C showed a self-cleavage of 2.04.
U1A C37U C99U showed a self-cleavage of 0.91.
U12C A77U U112A gave a self-cleavage of 1.18.
A42G G72A A92G gave a self-cleavage of 0.03.
In the case of U14C C37A U73A A136G, the self-cleavage is reported as 1.65.
U29A A50G U85A U108C A121U showed a self-cleavage of 0.13.
Variant U81C U130C A136G has a self-cleavage of 0.71.
In the case of U39C A57G U115A A129G, the self-cleavage is reported as 0.61.
With A42G A79G U91A A140G the self-cleavage was 1.23.
Variant A22G A64C A77G C145U has a self-cleavage of 0.73.
G11C C19U U47A A59G gave a self-cleavage of 0.19.
With U20C U26A A69G G82U the self-cleavage was 0.35.
For C37U U45G U73A U85C C99U, the self-cleavage was 0.01.
For A64G G93A U108C, the self-cleavage was 0.03.
Variant C56U A69G A136G A141G has a self-cleavage of 0.
A64G A92G U108G showed a self-cleavage of 0.
Variant U26A U46C C113U has a self-cleavage of 0.38.
In the case of G4U U47C A121G A141G, the self-cleavage is reported as 1.53.
Variant A59G A77U G93U A129U A138G A140G has a self-cleavage of 0.09.
U87C U119C C120U gave a self-cleavage of 0.07.
